# Assay results as given in PubChem BioAssay AID651820 (National Center for Advancing Translational Sciences (NCATS), 2012).
# Where “and” joins values, the source holds several entries; their conditions need not be identical. Identical values can stand only once. The campaign covered roughly 340,000 compounds. About 12,000 (3.5%) were called active. Inconclusive results, whose numbers are uncertain, are shown with a selection of clear calls. The call rests on the fitted dose curve; in most records, active means well fitted inhibition curve with a large enough effect; inconclusive means small, poorly fitted or top-dose-only effect, or another doubt; inactive means no such curve, though single readings can be large or run the other way. A potency beside an inconclusive call is a rough fit, not a confirmed value.
# Test: qHTS Assay for Inhibitors of Hepatitis C Virus (HCV)
# Settings: Huh7.5.1 HCVcc-Cre (HCVcc is cell-culture hepatitis C virus) infection, luciferase reporter, 44 h; series mostly up to 41.8 µM
# Procedure, shortened: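 1,000 cells/well; 4 h culture; + compound; + HCVcc-Cre (~0.5 moi); 44 h; luciferase substrate, RT 15 min; read 15 sec.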
# Potency means the concentration at half of the fitted maximal effect; tags describe the fitted curve by direction and shape.
row,Compound,Potency
1,Cc1ccc(CNC(=O)c2cc(-c3ccccc3)nn2CC2CC(c3cccnc3)=NO2)cc1 (stereo not given),inactive
2,CC1CCN(S(=O)(=O)c2ccc3c(c2)CC(C)N3C(=O)C2CCC2)CC1 (stereo not given),"inconclusive: 31.6 µM [inhibitor, single point]"
3,CC(c1ccccc1)C1C(C#N)=C(N)OC2=C1C(=O)CC(C)(C)C2 (stereo not given),inactive
4,Cc1nnc(SCC(=O)c2c[nH]c3ccccc23)n1C1CC1,inactive
5,O=C(COc1ccc(Cl)cc1)NCc1nnc(SCC(=O)c2ccccc2)o1,"inconclusive: 10 µM [inhibitor, partial curve]"
6,O=C(COC(=O)Cc1cccs1)Nc1ccccc1F,"inconclusive: 31.6 µM [inhibitor, single point]"
7,NC(=O)C1CCN(C(=O)CSc2nc3c(c(-c4ccccc4)n2)CCCC3)CC1,inactive
8,CC(C)(CNc1ccc([N+](=O)[O-])cc1Cl)CNS(C)(=O)=O,"inconclusive: 10 µM [inhibitor, single point]"
9,CC(C)Oc1cccc(C(=O)NC(=S)N2CCN(c3ccc(C(F)(F)F)cc3[N+](=O)[O-])CC2)c1,"inconclusive: 10 µM [inhibitor, single point]"
10,Cc1cc(C)nc(S/C=C/C(=O)c2ccccc2F)n1,"inconclusive: 31.6 µM [inhibitor, single point]"
11,CC(=O)Nc1ccc(N2C(C(C)=O)=NN(c3ccc(Cl)cc3)C2c2sccc2C)cc1 (stereo not given),"inconclusive: 28.2 µM [inhibitor, single point]"
12,CC1CCCC(C)N1CCNC(=O)Nc1ccc(Cl)cc1 (stereo not given),"inconclusive: 31.6 µM [inhibitor, single point]"
13,Cc1ccc(NC(=O)NC(=O)CN2CCN(c3ccc(O)cc3)CC2)c(C)c1,"inconclusive: 31.6 µM [inhibitor, single point]"
14,CC1(C)CC(=O)C(C2c3ccccc3Oc3ccccc32)C(=O)C1,inactive
15,c1ccc(C[n+]2ccc3ccccc3c2)cc1,"inconclusive: 1.12 µM [inhibitor, partial curve, poor fit]"
16,CC(C)Oc1ccc(C2CCC(=O)NC2=O)cc1 (stereo not given),inactive
17,CCOC(=O)c1cnc2c(OC)cccc2c1N1CCN(c2ccc(OC)cc2)CC1,"inconclusive: 31.6 µM [inhibitor, single point] and inconclusive: 15.8 µM [inhibitor, single point]"
18,Cc1ccc(-c2noc(CCC(=O)NC3CCCC3)n2)cc1,inactive
19,COc1ccc2c(c1)CCc1cn3nc(C)cc3nc1-2,"inconclusive: 1.58 µM [inhibitor, partial curve]"
20,CSc1ccc(/C=N/NC(=O)c2sccc2C)cc1,inactive
21,COc1ccc(N2CCN(C(=O)Cn3cnc4c(cnn4-c4ccc(C)cc4)c3=O)CC2)cc1,"inconclusive: 6.31 µM [inhibitor, full curve]"
22,COc1ccc(-n2cnc3cc(NCc4ccccn4)ccc32)cc1,"inconclusive: 10 µM [inhibitor, partial curve]"
23,CC1(C)NC(=O)N(CC(O)COc2ccc(-c3ccc(C#N)cc3)cc2)C1=O (stereo not given),"inconclusive: 25.1 µM [inhibitor, single point]"

row,Compound,Potency
1,CNS(=O)(=O)c1cccc(C(=O)Nc2cccc(Cl)c2)c1,inactive
2,COc1cc(CCC(=O)OCC(=O)Nc2cccc(S(=O)(=O)N(C)C)c2)cc(OC)c1OC,inactive
3,COc1ccc(/C=N/Nc2cc(N3CCCC3)nc(N3CCCC3)n2)cc1,active: 7.08 µM
4,CC1CCN(c2oc(-c3ccc(F)cc3)nc2C#N)CC1,"inconclusive: 28.2 µM [inhibitor, partial curve, poor fit]"
5,Cc1cc(N(CCCl)CCCl)ccc1C=Cc1ccncn1,"inconclusive: 2.51 µM [inhibitor, full curve]"
6,Cc1c(OCC(=O)NCCCn2ccnc2)ccc2c3c(c(=O)oc12)CCCC3,"inconclusive: 11.2 µM [inhibitor, partial curve]"
7,CCN(CC)CCCn1c2c(c(SCC(=O)Nc3nc4ccccc4s3)nc1=O)CCC2,"inconclusive: 8.91 µM [inhibitor, partial curve]"
8,CC(=O)c1cc2c(cc1NS(=O)(=O)c1ccc(C)cc1)OCO2,"inconclusive: 22.4 µM [inhibitor, single point]"
9,CC(=O)Nc1ccc(C2C(=O)c3ccccc3C2=O)cc1,"inconclusive: 12.6 µM [inhibitor, partial curve]"
10,COc1cc(C2c3cc4c(cc3OC(NCc3ccccc3)C2C)OCO4)cc(OC)c1OC (stereo not given),inactive
11,CCC/C(=C1/c2ccccc2C(=O)N1c1ccccc1)c1cnc(OC)nc1,"inconclusive: 15.8 µM [inhibitor, single point]"
12,COc1ccc(OC)c(C(=O)Nc2ccc3[nH]ccc3c2)c1,"inconclusive: 7.94 µM [inhibitor, partial curve]"
13,S=C1NNC2(CC3CC2C2CCCC32)NN1 (stereo not given),inactive
14,CCOc1ccccc1Oc1coc2cc(O)ccc2c1=O,inactive
15,CCCc1cc(-c2n[nH]c(C)c2-c2ccc(C(=O)OCC)o2)c(O)cc1O,"inconclusive: 12.6 µM [inhibitor, single point]"
16,Cn1c(C(=O)N2CCN(Cc3ccc4c(c3)OCO4)CC2)cc2sccc21,"inconclusive: 22.4 µM [inhibitor, single point]"
17,COc1ccc(CN2CC(=O)N(c3ccccc3C)C2=S)cc1OC,"inconclusive: 31.6 µM [inhibitor, single point]"
18,COc1cc(NC(=S)Nc2ccc(OC(F)F)cc2)cc(OC)c1,"inconclusive: 12.6 µM [inhibitor, single point]"
19,O=C1CCC(=O)N1OCCCOc1ccc(Br)cc1Cl,inactive
20,CCCCNc1ccc2oc(-c3ccc(OC)cc3)c(-c3ccc(OC)c(F)c3)c2c1,"inconclusive: 0.562 µM [inhibitor, partial curve, poor fit]"
21,O=C(COC(=O)c1cc(S(=O)(=O)N2CCCC2)ccc1O)Nc1ccc(SC(F)F)cc1,inactive
22,O=C(c1cccc(S(=O)(=O)NCCOc2ccccc2)c1)N1CCN(c2ncccn2)CC1,"inconclusive: 12.6 µM [inhibitor, partial curve]"
